According to patent US4610977A, “N-alkyl and N-benzyl adriamycin derivatives” (The University of Tennessee Research Corporation, priority 1985, dated 1986):
The name of at least one read-out is uncertain.

Tested on: murine P 388 leukemia
Test: In vivo antitumor activity against murine P 388 leukemia in B6D2F1 male mice
Conditions: for LTS (tumor free long term survivors): at optimal dose
Description: The in vivo evaluations were made by preparing a 0.01 to 0.4% by weight solution of the active agent in an aqueous solution of polyethoxylated castor oil (10% by volume) and ethanol (10% by volume) as a carrier and injecting the dosage intraperitoneally. The evaluations were made of the antitumor activity against the murine P 388 and L1210 leukemias in B6D2F1 male mice essentially according to standard National Cancer Institute protocols as set forth by Geran et al., Cancer Chemotherap. Rep., Part 3, Volume 3, pages 1 et seq.

[1] = compounds with OH in place of A, day of sacrifice: mono-N-benzyl 77, di-n-propyl 67, di-n-butyl 77
[2] = ip, qd 1-4, day of sacrifice: Example 1 88, Example 2 67, Example 3 88
[3] = valerates of different N-substitution, day of sacrifice: mono-n-propyl 67, dibenzyl 100

SMILES	LTS (tumor free long term survivors) [1]	LTS (tumor free long term survivors) [2]	LTS (tumor free long term survivors) [3]	other results
CCCCN(CCCC)[C@H]1C[C@H](O[C@H]2C[C@](O)(C(=O)CO)Cc3c(O)c4c(c(O)c32)C(=O)c2c(OC)cccc2C4=O)O[C@@H](C)[C@H]1O [Di-n-butyl]	1/7	–	–	–
CCCN(CCC)[C@H]1C[C@H](O[C@H]2C[C@](O)(C(=O)CO)Cc3c(O)c4c(c(O)c32)C(=O)c2c(OC)cccc2C4=O)O[C@@H](C)[C@H]1O [Di-n-propyl]	2/7	–	–	–
CCCCC(=O)OCC(=O)[C@]1(O)Cc2c(O)c3c(c(O)c2[C@@H](O[C@H]2C[C@H](NCc4ccccc4)[C@H](O)[C@H](C)O2)C1)C(=O)c1c(OC)cccc1C3=O [Example 1, N-Benzyladriamycin-14-valerate]	–	7/7	–	–
CCCCC(=O)OCC(=O)[C@]1(O)Cc2c(O)c3c(c(O)c2[C@@H](O[C@H]2C[C@H](N(CCC)CCC)[C@H](O)[C@H](C)O2)C1)C(=O)c1c(OC)cccc1C3=O [Example 2, N,N-Di(n-propyl)adriamycin-14-valerate]	–	4/7	–	–
CCCCC(=O)OCC(=O)[C@]1(O)Cc2c(O)c3c(c(O)c2[C@@H](O[C@H]2C[C@H](N(CCCC)CCCC)[C@H](O)[C@H](C)O2)C1)C(=O)c1c(OC)cccc1C3=O [Example 3, N,N-Di(n-butyl)adriamycin-14-valerate]	–	4/7	–	–
COc1cccc2c1C(=O)c1c(O)c3c(c(O)c1C2=O)C[C@@](O)(C(=O)CO)C[C@@H]3O[C@H]1C[C@H](NCc2ccccc2)[C@H](O)[C@H](C)O1 [Mono-N--benzyl]	1/7	–	–	–
CCCCCCN(CCCCCC)[C@H]1C[C@H](O[C@H]2C[C@](O)(C(=O)COC(=O)CCCC)Cc3c(O)c4c(c(O)c32)C(=O)c2c(OC)cccc2C4=O)O[C@@H](C)[C@H]1O [di-n-hexyl]	–	–	0	–
CCCCC(=O)OCC(=O)[C@]1(O)Cc2c(O)c3c(c(O)c2[C@@H](O[C@H]2C[C@H](N(Cc4ccccc4)Cc4ccccc4)[C@H](O)[C@H](C)O2)C1)C(=O)c1c(OC)cccc1C3=O [dibenzyl]	–	–	1/7	% ILS (percent median increase in life span relative to untreated controls) (valerates of different N-substitution, at optimal dose (diethyl 8.0, mono-n-propyl 15.0, di-n-hexyl 40.0, dibenzyl 20.0 mg/kg), ip, qd 1-4): +145%
CCCCC(=O)OCC(=O)[C@]1(O)Cc2c(O)c3c(c(O)c2[C@@H](O[C@H]2C[C@H](N(CC)CC)[C@H](O)[C@H](C)O2)C1)C(=O)c1c(OC)cccc1C3=O [diethyl]	–	–	0	–
CCCCC(=O)OCC(=O)[C@]1(O)Cc2c(O)c3c(c(O)c2[C@@H](O[C@H]2C[C@H](NCCC)[C@H](O)[C@H](C)O2)C1)C(=O)c1c(OC)cccc1C3=O [mono-n-propyl, N mono(n-propyl) adriamycin-14-valerate]	–	–	2/7	–
